# Data published in the supplement of paper PMC10126150.
# Values marked as one replicate rest on one cluster of the flow cell; about a third of the high ones do not repeat.
# Tested on: ATP
# Test: switch fluorescence ratio, 500 uM ATP over buffer (Cy3 cluster intensity, sum of 5 cycles each) (fold (ratio)); higher = stronger signal-on switching upon ATP binding; sequences stand for … in TCGTCGGCAGCGTCAGATGTGTATAAGAGACAGTTTTTTTTTTTTTTTTTTTTTTTTT…TC
# Conditions: aptamer strand: ATP DNA aptamer (quencher-CACCTGGGGGAGTATTGCGGAGGAAGG + anchor), 100 nM annealed; ATP concentration: 500 uM; one replicate
# In short: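 Clusters carrying Cy3-labelled switching strands on a modified Illumina MiSeq flow-cell were annealed to 100 nM quencher-labelled ATP aptamer and imaged in selection buffer. They were imaged again after 15 min with 500 uM ATP at 22 °C, over five buffer/ATP cycles with NaOH stripping and re-annealing in between. For each cluster, the fluorescence ratio is the summed Cy3 intensity of the target cycles divided by that of the buffer cycles, averaged per switch-domain sequence. Clusters outside 100-1000 RFU were left out.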
# 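Also: ATP exposure 15 min at 22 °C before imaging.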
row,Sequence,switch fluorescence ratio
1,CAATTTGTCG,0.986
2,CAATTTTAAG,1.01
3,CAATTTTAGA,0.981
4,CAATTTTAT,0.964
5,CACAAACAGT,1.05
6,CACAAAGTGA,0.972
7,CACAAGGC,1.34
8,CACAAGTCTG,1.01
9,CACACGTTGC,1.06
10,CACACTGAAT,1
11,CACACTGGGT,1.03
12,CACAGCACGG,1.59
13,CACAGCGGGG,1.02
14,CACAGCTACG,1.1
15,CACAGGATGA,1.01
16,CACAGGCCTG,1.04
17,CACAGGGCGC,1.05
18,CACAGGGGA,1.37
19,CACAGTTATG,1.03
20,CACATCGTGC,0.999
21,CACATCTGGT,0.997
22,CACATGCA,0.997
23,CACATGCATT,1.05
24,CACATGCCTG,1.01
25,CACATTAACA,1.06
26,CACATTTACA,1.1

row,Sequence,switch fluorescence ratio
1,CACATTTGCA,1.02
2,CACCAAGCGA,1.25
3,CACCATCC,1.55
4,CACCCGGATG,1.66
5,CACCGACCAA,2.32
6,CACCGAGATG,1.07
7,CACCGATTA,1.04
8,CACCGCATGG,1.88
9,CACCGGTGGA,1.01
10,CACCGTAGCG,1.15
11,CACCGTTTGT,1.02
12,CACCTAGTAT,1.06
13,CACCTCTAAG,0.998
14,CACCTGGGCT,1.04
15,CACCTTGGGT,1.03
16,CACGAACGAC,1.48
17,CACGACACTT,1.44
18,CACGACATCG,1.03
19,CACGAGCTTT,1.04
20,CACGAGTAGA,1.05
21,CACGATACAA,1.36
22,CACGATATTT,1.07
23,CACGATTGTC,1.13
24,CACGCAGAAA,1.15
25,CACGCCAACT,1.37
26,CACGCCAGCA,1.09

row,Sequence,switch fluorescence ratio
1,CACGCCTAGG,1.13
2,CACGCTTCAG,0.972
3,CACGGAGACA,1.12
4,CACGGAGTTC,1.04
5,CACGGCATT,1.21
6,CACGGCGGGC,0.958
7,CACGGGCATC,1.06
8,CACGGGCCGA,0.993
9,CACGGTTATT,1.09
10,CACGGTTCTG,1.03
11,CACGTATGTG,0.999
12,CACGTCACAT,1.51
13,CACGTCACCT,1.68
14,CACGTCGCGT,1.03
15,CACGTGAAAT,0.982
16,CACGTGCCCC,1.01
17,CACGTTGTCG,1.08
18,CACTAACGAT,1.26
19,CACTATACAC,1.37
20,CACTCAAGTG,1.04
21,CACTCAGCTT,1.24
22,CACTCAGGCC,1.03
23,CACTCAGTAG,1.07
24,CACTCGGCTT,1.07
25,CACTCGGGTA,1.02
26,CACTCGTGTC,0.972

row,Sequence,switch fluorescence ratio
1,CACTCTCGC,1.16
2,CACTCTGACG,1.07
3,CACTCTGGTA,1.02
4,CACTGATTCA,1.01
5,CACTGCAGTT,1.01
6,CACTGCTGTT,1.01
7,CACTGTATC,1.32
8,CACTGTATGC,1.17
9,CACTGTTAC,1.4
10,CACTTACTTT,1.22
11,CACTTTCACT,1.08
12,CAGAAAAACC,0.986
13,CAGAAAGGTG,1.23
14,CAGAACCCGA,1.03
15,CAGAACTAGA,1.01
16,CAGAAGTGGC,1.01
17,CAGAATCGCA,1.07
18,CAGAATGAAT,1.11
19,CAGACAAACG,1.08
20,CAGACGGCGG,0.998
21,CAGACGGGAC,1.69
22,CAGACTAGCG,0.969
23,CAGACTGAAA,1.05
24,CAGACTGGCG,0.964
25,CAGAGAAAAC,0.976
26,CAGAGGAAAT,1.02

row,Sequence,switch fluorescence ratio
1,CAGAGGATA,0.982
2,CAGAGGGAAC,1.06
3,CAGAGGGCCT,1.04
4,CAGAGGTAAA,1.01
5,CAGAGTCGG,0.942
6,CAGATACATT,1.04
7,CAGATAGGGC,0.992
8,CAGATAGTTG,0.989
9,CAGATATGCT,1.04
10,CAGATCACTT,1
11,CAGATGCGTT,0.982
12,CAGATGGCCT,1.02
13,CAGATGGGA,1.03
14,CAGATTTCAC,0.996
15,CAGATTTCCG,0.989
16,CAGCAATTGA,1.53
17,CAGCACACGG,1.13
18,CAGCACAGTG,1.08
19,CAGCAGGGC,1.19
20,CAGCAGTACA,2.85
21,CAGCCCAAGA,1.1
22,CAGCCGAAAT,1.96
23,CAGCCTATAA,1.04
24,CAGCGAATAT,1.11
25,CAGCGAATGT,1.02
26,CAGCGCTAAT,1.06

row,Sequence,switch fluorescence ratio
1,CAGCGCTAGA,1
2,CAGCGGTACA,1.29
3,CAGCGTGATT,0.988
4,CAGCGTGTGG,0.984
5,CAGCTAAGGT,0.985
6,CAGCTCCCAA,2.32
7,CAGCTCCGCG,1.19
8,CAGCTCCTGC,0.996
9,CAGCTCTGG,0.986
10,CAGCTGAGTT,1.02
11,CAGCTGATTC,1
12,CAGCTTCCTG,1.09
13,CAGCTTGGAG,1.07
14,CAGCTTGGGA,1.01
15,CAGCTTGGT,1.03
16,CAGCTTTA,1.46
17,CAGCTTTTT,0.965
18,CAGGAAAGGT,0.981
19,CAGGAATACA,1.46
20,CAGGACGTAT,1.12
21,CAGGAGATGG,1.06
22,CAGGAGTTCG,0.989
23,CAGGATCTGC,0.982
24,CAGGATTAAC,1.04
